Laboratory results: PubChem BioAssay AID485294 (National Center for Advancing Translational Sciences (NCATS), 2010)
The whole screen tested about 370,000 compounds, of which about 150 (0.041%) were called active. Inconclusive results, whose numbers are uncertain, are shown with a selection of clear calls. The call rests on the fitted dose curve; in most records, active means well fitted inhibition curve with a large enough effect; inconclusive means small, poorly fitted or top-dose-only effect; inactive means flat fitted curve, though single readings scatter. No potency is given beside an inconclusive call; the fits are too rough.

target: Beta-lactamase (Escherichia coli (strain K12)) (UniProt P00811); assay: qHTS Inhibitors of AmpC Beta-Lactamase (assay with detergent); conditions: AmpC hydrolysis of nitrocefin, absorbance 480 nm, 0.01% Triton; activity change, negative = inhibition: at 114 µM (top of the series); further: nearly all actives have a fitted effect of over 25% in size;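 on activity change, negative = inhibition: 0% = no-compound wells and -100% = no-enzyme wells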
Method in brief: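 AmpC (5.3 nM in the dispensed reagent) in 20 mM phosphate pH 7.0 with 0.01% (detergent screen) or 0.0001% Triton X-100 was preincubated with compounds for 15 min at room temperature. Nitrocefin was then added from an 800 uM solution, and hydrolysis was followed at 480 nm.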
Potency means the concentration at half of the fitted maximal effect; tags describe the fitted curve by direction and shape.

UniProt P00811, sequence (P00811 whole entry, looked up): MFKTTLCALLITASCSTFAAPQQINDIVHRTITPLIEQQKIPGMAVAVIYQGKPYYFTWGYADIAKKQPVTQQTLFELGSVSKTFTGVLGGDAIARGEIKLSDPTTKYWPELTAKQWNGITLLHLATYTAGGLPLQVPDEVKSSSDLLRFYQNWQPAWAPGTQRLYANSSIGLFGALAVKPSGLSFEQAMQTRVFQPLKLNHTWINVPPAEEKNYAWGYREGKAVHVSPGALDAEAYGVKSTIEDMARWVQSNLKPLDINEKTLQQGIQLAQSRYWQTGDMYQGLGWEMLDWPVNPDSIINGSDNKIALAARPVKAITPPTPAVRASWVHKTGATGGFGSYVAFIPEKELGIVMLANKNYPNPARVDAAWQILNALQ

Row | SMILES | activity change, negative = inhibition | Potency
1 | COc1ccc2c(c1)-c1c(ssc1=S)C(C)(C)N2S(=O)(=O)c1ccc(C)cc1 | inactive: -10.9% | –
2 | O=c1[nH]c(Nc2ccc(F)cc2)cc2ccccc12 | inactive: -6.44% | –
3 | CNC(=O)c1ncnnc1N(C)C(=O)NCc1ccccc1 | – | inconclusive [inhibitor, partial curve]
4 | COc1ccc(-c2noc(N3CCC(C(=O)N(C)c4ccccc4C)CC3)n2)cc1 | – | inconclusive [inhibitor, partial curve]
5 | CCn1cc(C(=O)N[C@@H](CCSC)C(=O)NCCN2CCOCC2)c(=O)c2cc3c(cc21)OCO3 | inactive: -0.487% | –
6 | CCN(CC)CCN1C(=O)C(=O)/C(=C(/O)c2c(C)[nH]c(C(=O)OC)c2C)C1c1cccs1 (stereo not drawn) | inactive: 3.61% | –
7 | Cc1ccc2[nH]cc(CCNC(=O)CN3C(=O)c4ccccc4C3=O)c2c1 | – | inconclusive [inhibitor, full curve, poor fit]
8 | Cc1ccc(NC(=S)NCc2ccc3c(c2)OCO3)cc1 | – | inconclusive [inhibitor, partial curve]
9 | CCN(C(=O)CSc1ncc(S(=O)(=O)c2ccc(C)c(Cl)c2)c(=O)[nH]1)c1cccc(C)c1 | inactive: -3.96% | –
10 | Cc1cc(C)cc(NC(=O)/C=C/c2ccc([N+](=O)[O-])s2)c1 | inactive: 7.76% | –
11 | COCCCNC(=O)C1CCN(c2nc(C)cc(C)n2)CC1 | – | inconclusive [inhibitor, full curve, poor fit]
12 | COCCN(C(=O)CSc1nnc(Nc2ccc(C)cc2)s1)c1c(N)n(CC(C)C)c(=O)[nH]c1=O | – | inconclusive [inhibitor, full curve, poor fit]
13 | CCOc1ccccc1NC(=S)NC(=O)C1CC1 | inactive: -0.467% | –
14 | CCOc1ccccc1NC(=O)CN1C(=O)CC(c2ccco2)Sc2ccccc21 (stereo not drawn) | inactive: 23.2% | –
15 | CCOC(=O)C1(CCCc2ccccc2)CCN(C(=O)C(C)n2cncn2)CC1 (stereo not drawn) | inactive: 3.11% | –
16 | Cn1c(SCC(=O)c2cc3ccccc3o2)nnc1-c1ccccc1 | – | inconclusive [inhibitor, single point]
17 | O=S(=O)(c1ccc2ccccc2c1)n1nc(-c2ccco2)nc1NCc1ccc(F)cc1 | inactive: 3.24% | –
18 | CC12CCC(=O)N1C(C(=O)N1CCN(S(=O)(=O)c3cccc(Cl)c3)CC1)CS2 (stereo not drawn) | – | inconclusive [inhibitor, full curve, poor fit]
19 | COC(=O)c1ccc(-n2cc(-c3ccc(OC)cc3)[nH]c2=S)cc1 | – | inconclusive [inhibitor, partial curve]
20 | Cc1cc2ccccc2n1CCNC(=O)COc1ccccc1 | – | inconclusive [inhibitor, full curve, poor fit]
21 | O=C(Nc1nc2ccccc2s1)c1ccc2c(c1)OCO2 | – | inconclusive [inhibitor, single point]
22 | O=C(Nc1ccc(CN2CCOCC2)cc1)c1ccc(-c2cc(Cl)ccc2Cl)o1 | – | inconclusive [inhibitor, full curve, poor fit]
23 | COc1ccc(Oc2nc3ccccc3nc2C(F)(F)F)cc1 | – | inconclusive [inhibitor, full curve]

Row | SMILES | activity change, negative = inhibition | Potency
24 | Cn1c(-c2ccccc2)cc2onc(-c3ccccc3)c2c1=O | – | inconclusive [inhibitor, full curve]
25 | CC(C)CC(=O)Nc1c2c(nn1-c1ccc(F)cc1)CS(=O)C2 (stereo not drawn) | inactive: -2.51% | –
26 | CC(Oc1ccccc1)C(=O)NC1C(=O)N2C1SC(C)(C)C2C(=O)O (stereo not drawn) | – | active: 35.5 µM
27 | CN(CP(=O)(O)CCc1ccccc1)S(C)(=O)=O | – | inconclusive [inhibitor, full curve, poor fit]
28 | CC(=O)c1cccc(S(=O)(=O)NCCc2csc3nc(-c4ccc(F)cc4)nn23)c1 | inactive: 2.19% | –
29 | O=S(=O)(/N=C(/Nc1ccccn1)c1ccc(Cl)cc1)c1ccc(Cl)cc1 | – | inconclusive [inhibitor, full curve]
30 | Cc1ccccc1CNC(=O)Cc1ccccc1[N+](=O)[O-] | – | inconclusive [inhibitor, full curve]
31 | COc1ccc(NC(=O)CCCn2c(=O)[nH]c3ccccc3c2=O)cc1 | inactive: 3.4% | –
32 | Nc1c(C(=O)Nc2ccccc2)sc2nc3c(c(-c4ccco4)c12)CCC3 | – | inconclusive [inhibitor, partial curve]
33 | O=C(COC(=O)CCCNC(=O)c1ccc(Cl)cc1)Nc1cc(Cl)c(Cl)cc1Cl | – | inconclusive [inhibitor, full curve]
34 | Cc1ccc(CSCC(=O)N2CCN(c3ccc(F)cc3)CC2)cc1 | – | inconclusive [inhibitor, partial curve]
35 | Cc1ccn(-c2cccc(-n3ccc(C)n3)n2)n1 | – | inconclusive [inhibitor, single point]
36 | CSC(SC)=C(C(C)=O)C(=O)c1ccc(C)cc1 | – | inconclusive [inhibitor, full curve]
37 | CSc1cccc(CN2CCC(Oc3cccc(C(=O)N4CCCC4)c3)CC2)c1 | – | inconclusive [inhibitor, full curve, poor fit]
38 | O=C1CN(C(=O)c2ccccc2F)c2ccccc2N1 | – | inconclusive [inhibitor, full curve, poor fit]
39 | CN(Cc1ccccc1)C(=O)CCC1CCN(C(=O)CC2=CCCCC2)CC1 | – | inconclusive [inhibitor, full curve, poor fit]
40 | O=C(N/N=C/c1ccc(O)cc1O)C(=O)N/N=C/c1ccc(O)cc1O | – | inconclusive [inhibitor, partial curve, poor fit]
41 | CCOc1ccccc1N(CC(=O)OC)S(=O)(=O)c1ccccc1 | – | inconclusive [inhibitor, partial curve, poor fit]
42 | O=C(COC(=O)CCC(=O)c1ccccc1)Nc1nnc(-c2ccccc2)o1 | – | inconclusive [inhibitor, single point]
43 | CC(C(=O)NCc1ccco1)n1cc(C(=O)c2ccco2)c2ccccc21 (stereo not drawn) | – | inconclusive [inhibitor, full curve, poor fit]
44 | CCc1nn2c(=O)c(S(=O)(=O)Nc3ccc(OC)c(Cl)c3)c(C)nc2s1 | inactive: -6.57% | –
45 | CC/C(=N\NC(=O)c1ccc2c(c1)OCO2)c1ccccc1 | inactive: -8.81% | –
46 | COc1cccc(CNC(=O)CCS(=O)(=O)c2cccc3nonc23)c1 | – | inconclusive [inhibitor, full curve, poor fit]

Row | SMILES | activity change, negative = inhibition | Potency
47 | CC(C)(C)Cc1nnc(NC(=O)CCc2ccccc2)s1 | – | inconclusive [inhibitor, partial curve, poor fit]
48 | C[C@@H]1CC=C[C@H]2[C@H]1C(=O)N(Cc1ccccc1)[C@H]2c1ccc(/C=C/c2ccccc2)cc1F | inactive: -0.791% | –
49 | Cc1ccc(OCCNC(=O)c2cc(-n3cnnc3)ccc2Cl)cc1C | – | inconclusive [inhibitor, full curve]
50 | Cc1cc(-n2c(C)cc(C(=O)CSc3nnc4sc5ccccc5n34)c2C)no1 | – | inconclusive [inhibitor, full curve, poor fit]
51 | Cc1cc(C)n(-c2cc(-c3ccccc3)nc(C)n2)n1 | – | inconclusive [inhibitor, full curve]
52 | Cc1cccn2c(=O)nc(SCC(=O)NCc3ccccc3)nc12 | – | inconclusive [inhibitor, full curve, poor fit]
53 | CCN1/C(=C/c2ccc3cccc(C)c3[n+]2CC)Sc2ccccc21 | – | inconclusive [inhibitor, single point]
54 | COc1ccc(C(O)(C(C)C)C(CN2CCOCC2)c2ccccc2)cc1 (stereo not drawn) | inactive: 0.953% | –
55 | COc1cccc(CN(C)C(=O)c2ccc(NC(=O)CC3SC(N4CCCC4)=NC3=O)cc2)c1OC (stereo not drawn) | – | inconclusive [inhibitor, full curve, poor fit]
56 | Fc1ccc(-c2nnc(NC3=NCCCCC3)o2)cc1 | – | inconclusive [inhibitor, full curve]
57 | Cc1ccc(CN2CCCn3nc(C(=O)NCCc4ccc(Cl)cc4)cc3C2=O)cc1 | inactive: 24.7% | –
58 | CCCCCCNC(=O)c1cn(CC)c2cc(N3CCN(C)CC3)c(F)cc2c1=O | inactive: -4.37% | –
59 | CSCCC(NS(=O)(=O)c1cccc(C(F)(F)F)c1)C(=O)Nc1ccccc1N1CCCC1 (stereo not drawn) | inactive: -5.34% | –
60 | COc1ccccc1-c1csc2ncnc(Sc3nnnn3C)c12 | inactive: -6.68% | –
61 | COc1cc(C2c3c(oc4ccccc4c3=O)C(=O)N2CCN2CCOCC2)cc(OC)c1OC (stereo not drawn) | – | inconclusive [inhibitor, partial curve, poor fit]
62 | COc1ccc2occ(NC(C)=O)c2c1 | – | inconclusive [inhibitor, partial curve]
63 | O=C(COc1ccc(Cl)cc1Cl)NC1CCSC1=O (stereo not drawn) | – | inconclusive [inhibitor, single point]
64 | CC(C)CC1NC(=O)N(CC(=O)c2ccc3c(c2)OCCO3)C1=O (stereo not drawn) | – | inconclusive [inhibitor, full curve, poor fit]
65 | COc1ccc(Nc2nc(Cl)nc(NCc3ccco3)n2)c(OC)c1 | – | inconclusive [inhibitor, single point]
66 | CCOc1ccc(NC(=S)NC(=O)c2c(Cl)cnn2CC)c([N+](=O)[O-])c1 | – | inconclusive [inhibitor, partial curve]
67 | COc1ccc(CC(=O)Nc2ccccc2C(=O)NCCc2ccccc2)cc1 | – | inconclusive [inhibitor, full curve]
68 | CCN(CC)c1ccc(NC(=O)c2ccccc2Br)cc1S(=O)(=O)Nc1ccccc1OC | inactive: -0.461% | –
